Data as given in the supplement of paper PMC3334620.
Whole data set: some 33,000 sequences, median “E-score (-0.5 to 0.5)” near -0.054, cut for the highest 2% near 0.39. This is one part of the list.

Target: Ylr278c (UniProt Q05854)
Experiment: PBM E-score (8-mer binding enrichment) (E-score (-0.5 to 0.5)); higher = stronger / more preferred TF binding; most listed sequences are background and not binding sites
Conditions: protein concentration: 200 nM; construct: GST-DNA-binding domain
Summary of the method: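 For each ungapped eight-base word taken together with its reverse complement, the Universal PBM Analysis Suite assigned an E-score. Binding data came from GST-tagged yeast transcription factors, applied at about 100-200 nM, on universal all-10-mer Agilent arrays made double-stranded by primer extension. Fluorescent anti-GST marked bound protein, and scans were normalised with masliner.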

Sequence	PBM E-score
AACTCAGG	-0.143
CGCTGTAG	-0.0629
CGCCTTGC	-0.0411
TGACGTAA	-0.185
AGGATTTG	-0.171
AATAATTC	0.171
ATCCCTGC	-0.115
ACCCAGAA	-0.176
AAATTAGG	0.129
AGGACTAC	-0.16
AAGAGTCC	0.0347
ATTTAGGA	-0.183
CAGGCACC	-0.174
GCCTCTGA	-0.256
ATAATGAA	-0.0289
CTCGTCAG	-0.213
CCGCTCTC	0.0728
ACATGCCA	-0.0815
GGGGGAGA	0.0467
ATTCGACA	-0.191
AGGACGGC	-0.0301
AGCCGCGG	0.361
GCTAGGCA	-0.101
ACACCTTC	0.0333
AGGAAGGA	-0.36

Sequence	PBM E-score
AACCCTTA	-0.138
TACAGCAA	-0.103
CGGGTTCC	0.294
AACTGAAC	0.0386
CCAGCTGA	-0.132
CATAAAAC	0.0973
ATATGACA	-0.225
CTACCACA	-0.278
CATGGCGA	-0.0973
ATGTTGGG	-0.0409
CCGCCTGC	0.00278
CCACTCAA	-0.274
GAATTTAA	-0.0111
GTCGCCAA	-0.254
TCACAACA	-0.175
CATCTGTA	-0.209
AGTGGCTC	-0.117
AAGAACTA	-0.0398
AGGTACAG	-0.258
CACCAACA	-0.074
GATATTGA	0.0976
TCGAGTCA	-0.195
TAGAAACA	-0.168
CTACGCAG	-0.155
CGTCTGGC	0.0246

Sequence	PBM E-score
ATCGCAGC	-0.076
GCTGTAAA	-0.312
ATACACAA	-0.169
AAACGGGG	0.2
CCGGCAGC	0.322
AGGCTCCG	0.39
CTTAATCA	0.015
AACGTTGC	-0.126
AGCAGCGA	-0.0853
ACGACATA	-0.293
GCAAACCC	0.153
GTAAGGGA	-0.0823
AAACGGGT	0.0649
CCTATAGG	-0.0702
CACCGCCC	0.218
CTTGCTGA	-0.226
CGAGTGTA	-0.161
CGCGAGTC	0.129
ACACGGAT	0.199
CTAGGACA	-0.135
ACAATACT	-0.0192
AAGCTTCA	-0.0959
TGCATAAA	-0.105
GGTTGTCA	-0.124
AGGACCTC	-0.0432

Sequence	PBM E-score
AAGACTCT	-0.202
AGTTCCGA	0.43
ACTTCGTC	0.0646
GCATTTGA	0.0329
ACGGGGTA	0.108
CCGACTTC	0.232
AAAATTCC	0.359
CACGAAGC	-0.146
ACTTGCCT	-0.136
GTTTCCCA	0.0145
GATGCGAC	0.0725
CGCGGCAC	0.212
GAAACGTA	-0.0699
CCGAGGAC	0.216
GAACAGCA	-0.0275
ACAGTCGT	-0.16
GTGGCGAA	0.0623
ATGACAAC	-0.036
AAGCGACT	-0.242
GCTCAACA	-0.128
TCAGGAGA	-0.0923
CCGTAACG	0.0779
GAGGGAAC	0.143
GAGGTAAA	-0.038
ACGGTATA	0.0634

Sequence	PBM E-score
GGAGAGCC	0.0259
AACGTGTC	-0.0761
CCGCTCAC	0.115
ACGTTGGG	-0.329
ATCCTGCC	-0.0966
GCTTACAC	0.0701
GGAACAAC	0.223
CCGTCTGA	0.081
CCGTTTGA	0.018
ACTTAAGA	0.0819
GTGCGGCA	0.0935
ACAATAGC	-0.207
AGGATGTC	-0.0871
GAAACATA	0.0768
CGATGACA	0.0615
CTGGCGGA	0.183
CTAGCCCA	-0.171
AGTTCAGA	-0.236
CGCTCACA	-0.149
AGGACCTG	-0.186
ATCAGCTA	-0.228
ATAGACGA	-0.0361
CCATGAAG	-0.0668
GCGCACTA	0.13
GCGCGCCC	0.202

Sequence	PBM E-score
AAGTGAAA	-0.031
CTACAACA	-0.174
ACTATTGC	0.0531
AATGCGCC	0.199
GGAAGGCA	-0.0122
CCATTTTA	0.107
CGTGGCCA	-0.315
AACTTTCT	0.0486
ATTTCTCC	0.33
ATAGTAGC	0.0024
GGACGGCA	0.211
CGGATCGC	0.259
GTGTGACA	-0.215
AAGCTGAA	-0.0151
ACTTGCCG	0.0488
ATCGAGTG	0.0113
GGAGCACC	0.222
AGTATGGC	-0.0866
CTGACAAC	-0.245
AGGTTTCG	-0.0904
ATCAGGAC	-0.13
ATCGCCGC	0.295
GTCCGCGA	0.313
AAGGTGCC	-0.0322
GTTGATAA	-0.164

Sequence	PBM E-score
GGCCTCCA	0.0147
ACGGCTTC	0.1
GAGAATGA	0.0136
CGACCACG	0.0345
CTGCAGCC	-0.0976
ATACAAAT	0.131
TAATAGCA	-0.158
ATTTCTTA	-0.0929
GCCCCCGA	0.0674
ACTGTTGG	-0.239
AGACGAAT	-0.244
CGATGAAG	-0.0134
AAGCATCG	-0.0405
ATCTTCCG	0.368
ACCGATCT	0.0759
CCGCAATC	0.341
AGAGTCTC	-0.0765
CCTTAACA	-0.241
AGGGGATA	-0.246
ATTTAGTG	-0.0462
ATGATATA	-0.207
CTACTCCC	-0.0194
